Data taken from US20240327497A1.

Tests used:
[1] = target: canine FcRn (FcRn large subunit with canine beta-2-microglobulin) (canine); test: SPR pH 5.5, SASA-Fc captured on BSA, FcRn 400 nM
[2] = target: canine FcRn (FcRn large subunit with canine beta-2-microglobulin) (canine); test: SPR pH 5.5, SASA-Fc captured on BSA, FcRn 200 nM

Row | Binder | koff [1] | kon [1] | further results
1 | canine IgGB Fc (CH2-CH3) T250A with N-terminal SASA tag (Fc fusion, part only; not given: SASA tag, not shown: another chain or arm of the molecule; small tags and cut ends) Fc: APEMLGGPSVFIFPPKPKDALLIARTPEVTCVVVDLDPEDPEVQISWFVDGKQMQTAKTQPREEQFNGTYRVVSVLPIGHQDWLKGKQFTCKVNNKALPSPIERTISKARGQAHQPSVYVLPPSREELSKNTVSLTCLIKDFFPPDIDVEWQSNGQQEPESKYRTTPPQLDEDGSYFLYSKLSVDKSRWQRGDTFICAVMHEALHNHYTQESLSHSPGK | 6.24 s⁻¹ and 1.27 s⁻¹ [lines of one column] | 1.9e+07 M⁻¹ s⁻¹ and 3.9e+06 M⁻¹ s⁻¹ [lines of one column] | –
2 | canine IgGB Fc (CH2-CH3) L252A with N-terminal SASA tag (Fc fusion, part only; not given: SASA tag, not shown: another chain or arm of the molecule; small tags and cut ends) Fc: APEMLGGPSVFIFPPKPKDTLAIARTPEVTCVVVDLDPEDPEVQISWFVDGKQMQTAKTQPREEQFNGTYRVVSVLPIGHQDWLKGKQFTCKVNNKALPSPIERTISKARGQAHQPSVYVLPPSREELSKNTVSLTCLIKDFFPPDIDVEWQSNGQQEPESKYRTTPPQLDEDGSYFLYSKLSVDKSRWQRGDTFICAVMHEALHNHYTQESLSHSPGK | 0.0969 s⁻¹ and 0.567 s⁻¹ [lines of one column] | 332000 M⁻¹ s⁻¹ and 2.4e+06 M⁻¹ s⁻¹ [lines of one column] | –
3 | canine IgGB Fc (CH2-CH3) M428A with N-terminal SASA tag (Fc fusion, part only; not given: SASA tag, not shown: another chain or arm of the molecule; small tags and cut ends) Fc: APEMLGGPSVFIFPPKPKDTLLIARTPEVTCVVVDLDPEDPEVQISWFVDGKQMQTAKTQPREEQFNGTYRVVSVLPIGHQDWLKGKQFTCKVNNKALPSPIERTISKARGQAHQPSVYVLPPSREELSKNTVSLTCLIKDFFPPDIDVEWQSNGQQEPESKYRTTPPQLDEDGSYFLYSKLSVDKSRWQRGDTFICAVAHEALHNHYTQESLSHSPGK | 0.169 s⁻¹ and 0.532 s⁻¹ [lines of one column] | – | –
4 | canine IgGB Fc (CH2-CH3) H433A with N-terminal SASA tag (Fc fusion, part only; not given: SASA tag, not shown: another chain or arm of the molecule; small tags and cut ends) Fc: APEMLGGPSVFIFPPKPKDTLLIARTPEVTCVVVDLDPEDPEVQISWFVDGKQMQTAKTQPREEQFNGTYRVVSVLPIGHQDWLKGKQFTCKVNNKALPSPIERTISKARGQAHQPSVYVLPPSREELSKNTVSLTCLIKDFFPPDIDVEWQSNGQQEPESKYRTTPPQLDEDGSYFLYSKLSVDKSRWQRGDTFICAVMHEALANHYTQESLSHSPGK | – | 862000 M⁻¹ s⁻¹ and 278000 M⁻¹ s⁻¹ [lines of one column] | –
5 | canine IgGB Fc (CH2-CH3) Y436A with N-terminal SASA tag (Fc fusion, part only; not given: SASA tag, not shown: another chain or arm of the molecule; small tags and cut ends) Fc: APEMLGGPSVFIFPPKPKDTLLIARTPEVTCVVVDLDPEDPEVQISWFVDGKQMQTAKTQPREEQFNGTYRVVSVLPIGHQDWLKGKQFTCKVNNKALPSPIERTISKARGQAHQPSVYVLPPSREELSKNTVSLTCLIKDFFPPDIDVEWQSNGQQEPESKYRTTPPQLDEDGSYFLYSKLSVDKSRWQRGDTFICAVMHEALHNHATQESLSHSPGK | – | 1e+06 M⁻¹ s⁻¹ and 244000 M⁻¹ s⁻¹ [lines of one column] | –
6 | wild-type canine IgGB Fc (CH2-CH3) with N-terminal SASA tag (Fc fusion, part only; not given: SASA tag, not shown: another chain or arm of the molecule; small tags and cut ends) Fc: APEMLGGPSVFIFPPKPKDTLLIARTPEVTCVVVDLDPEDPEVQISWFVDGKQMQTAKTQPREEQFNGTYRVVSVLPIGHQDWLKGKQFTCKVNNKALPSPIERTISKARGQAHQPSVYVLPPSREELSKNTVSLTCLIKDFFPPDIDVEWQSNGQQEPESKYRTTPPQLDEDGSYFLYSKLSVDKSRWQRGDTFICAVMHEALHNHYTQESLSHSPGK | 1.16, 0.375, 0.185, 0.314, 0.188, 0.201, 0.16, 0.152, 0.166, 0.479, 0.135, 0.196 s⁻¹ [lines of one column] | 3.6e+06 M⁻¹ s⁻¹, 632000 M⁻¹ s⁻¹, 442000 M⁻¹ s⁻¹, 587000 M⁻¹ s⁻¹, 386000 M⁻¹ s⁻¹, 391000 M⁻¹ s⁻¹, 265000 M⁻¹ s⁻¹, 310000 M⁻¹ s⁻¹, 269000 M⁻¹ s⁻¹, 780000 M⁻¹ s⁻¹, 290000 M⁻¹ s⁻¹, 173000 M⁻¹ s⁻¹ [lines of one column] | Kd [1]: 321 nM, 592 nM, 418 nM, 534 nM, 488 nM, 514 nM, 606 nM, 489 nM, 616 nM, 614 nM, 465 nM, 1.13 µM [lines of one column]; WT KD Avg/Variant KD [1]: 1.76, 0.96, 1.35, 1.06, 1.16, 1.1, 0.93, 0.92, 1.22, 0.5 [lines of one column]
7 | canine IgGB Fc (CH2-CH3) A254S with N-terminal SASA tag (Fc fusion, part only; not given: SASA tag, not shown: another chain or arm of the molecule; small tags and cut ends) Fc: APEMLGGPSVFIFPPKPKDTLLISRTPEVTCVVVDLDPEDPEVQISWFVDGKQMQTAKTQPREEQFNGTYRVVSVLPIGHQDWLKGKQFTCKVNNKALPSPIERTISKARGQAHQPSVYVLPPSREELSKNTVSLTCLIKDFFPPDIDVEWQSNGQQEPESKYRTTPPQLDEDGSYFLYSKLSVDKSRWQRGDTFICAVMHEALHNHYTQESLSHSPGK | 2.69 s⁻¹ and 0.758 s⁻¹ [lines of one column] | 7.9e+06 M⁻¹ s⁻¹ and 2.4e+06 M⁻¹ s⁻¹ [lines of one column] | –
8 | canine IgGB Fc (CH2-CH3) G309P with N-terminal SASA tag (Fc fusion, part only; not given: SASA tag, not shown: another chain or arm of the molecule; small tags and cut ends) Fc: APEMLGGPSVFIFPPKPKDTLLIARTPEVTCVVVDLDPEDPEVQISWFVDGKQMQTAKTQPREEQFNGTYRVVSVLPIPHQDWLKGKQFTCKVNNKALPSPIERTISKARGQAHQPSVYVLPPSREELSKNTVSLTCLIKDFFPPDIDVEWQSNGQQEPESKYRTTPPQLDEDGSYFLYSKLSVDKSRWQRGDTFICAVMHEALHNHYTQESLSHSPGK | – | – | Kd [2]: 635, 434, 637, 718 nM [lines of one column]; koff [2]: 0.239, 0.242, 0.132, 0.145 s⁻¹ [lines of one column]; kon [2]: 377000, 558000, 207000, 202000 M⁻¹ s⁻¹ [lines of one column]
9 | canine IgGB Fc (CH2-CH3) T256A with N-terminal SASA tag (Fc fusion, part only; not given: SASA tag, not shown: another chain or arm of the molecule; small tags and cut ends) Fc: APEMLGGPSVFIFPPKPKDTLLIARAPEVTCVVVDLDPEDPEVQISWFVDGKQMQTAKTQPREEQFNGTYRVVSVLPIGHQDWLKGKQFTCKVNNKALPSPIERTISKARGQAHQPSVYVLPPSREELSKNTVSLTCLIKDFFPPDIDVEWQSNGQQEPESKYRTTPPQLDEDGSYFLYSKLSVDKSRWQRGDTFICAVMHEALHNHYTQESLSHSPGK | – | 371000 M⁻¹ s⁻¹ and 2.4e+08 M⁻¹ s⁻¹ [lines of one column] | –
10 | canine IgGB Fc (CH2-CH3) N434W with N-terminal SASA tag (Fc fusion, part only; not given: SASA tag, not shown: another chain or arm of the molecule; small tags and cut ends) Fc: APEMLGGPSVFIFPPKPKDTLLIARTPEVTCVVVDLDPEDPEVQISWFVDGKQMQTAKTQPREEQFNGTYRVVSVLPIGHQDWLKGKQFTCKVNNKALPSPIERTISKARGQAHQPSVYVLPPSREELSKNTVSLTCLIKDFFPPDIDVEWQSNGQQEPESKYRTTPPQLDEDGSYFLYSKLSVDKSRWQRGDTFICAVMHEALHWHYTQESLSHSPGK | – | – | koff [2]: 0.028 s⁻¹ and 0.318 s⁻¹ [lines of one column]; kon [2]: 693000 M⁻¹ s⁻¹ and 4.2e+06 M⁻¹ s⁻¹ [lines of one column]
11 | canine IgGB Fc (CH2-CH3) Q285A with N-terminal SASA tag (Fc fusion, part only; not given: SASA tag, not shown: another chain or arm of the molecule; small tags and cut ends) Fc: APEMLGGPSVFIFPPKPKDTLLIARTPEVTCVVVDLDPEDPEVQISWFVDGKQMATAKTQPREEQFNGTYRVVSVLPIGHQDWLKGKQFTCKVNNKALPSPIERTISKARGQAHQPSVYVLPPSREELSKNTVSLTCLIKDFFPPDIDVEWQSNGQQEPESKYRTTPPQLDEDGSYFLYSKLSVDKSRWQRGDTFICAVMHEALHNHYTQESLSHSPGK | – | 328000 M⁻¹ s⁻¹ and 1.4e+08 M⁻¹ s⁻¹ [lines of one column] | –
12 | canine IgGB Fc (CH2-CH3) P307A with N-terminal SASA tag (Fc fusion, part only; not given: SASA tag, not shown: another chain or arm of the molecule; small tags and cut ends) Fc: APEMLGGPSVFIFPPKPKDTLLIARTPEVTCVVVDLDPEDPEVQISWFVDGKQMQTAKTQPREEQFNGTYRVVSVLAIGHQDWLKGKQFTCKVNNKALPSPIERTISKARGQAHQPSVYVLPPSREELSKNTVSLTCLIKDFFPPDIDVEWQSNGQQEPESKYRTTPPQLDEDGSYFLYSKLSVDKSRWQRGDTFICAVMHEALHNHYTQESLSHSPGK | – | 2.9e+08 M⁻¹ s⁻¹ and 3.7e+06 M⁻¹ s⁻¹ [lines of one column] | –
13 | canine IgGB Fc (CH2-CH3) G309A with N-terminal SASA tag (Fc fusion, part only; not given: SASA tag, not shown: another chain or arm of the molecule; small tags and cut ends) Fc: APEMLGGPSVFIFPPKPKDTLLIARTPEVTCVVVDLDPEDPEVQISWFVDGKQMQTAKTQPREEQFNGTYRVVSVLPIAHQDWLKGKQFTCKVNNKALPSPIERTISKARGQAHQPSVYVLPPSREELSKNTVSLTCLIKDFFPPDIDVEWQSNGQQEPESKYRTTPPQLDEDGSYFLYSKLSVDKSRWQRGDTFICAVMHEALHNHYTQESLSHSPGK | 0.348 s⁻¹ and 0.0719 s⁻¹ [lines of one column] | 1.4e+06 M⁻¹ s⁻¹ and 244000 M⁻¹ s⁻¹ [lines of one column] | –
14 | canine IgGB Fc (CH2-CH3) K315A with N-terminal SASA tag (Fc fusion, part only; not given: SASA tag, not shown: another chain or arm of the molecule; small tags and cut ends) Fc: APEMLGGPSVFIFPPKPKDTLLIARTPEVTCVVVDLDPEDPEVQISWFVDGKQMQTAKTQPREEQFNGTYRVVSVLPIGHQDWLAGKQFTCKVNNKALPSPIERTISKARGQAHQPSVYVLPPSREELSKNTVSLTCLIKDFFPPDIDVEWQSNGQQEPESKYRTTPPQLDEDGSYFLYSKLSVDKSRWQRGDTFICAVMHEALHNHYTQESLSHSPGK | – | 4.1e+07 M⁻¹ s⁻¹ and 245000 M⁻¹ s⁻¹ [lines of one column] | –

The source holds more than one record for some entries. This list holds those alone. There may be further records. For part of these data: Results that share an entry appear to be repeats on other runs, samples or individuals. For part of these data: Values that stand side by side seem to repeat one measurement; one of them may be the mean.
